The record followed here is the supplement of paper PMC3334620.

Whole data set: some 33,000 sequences, median “E-score (-0.5 to 0.5)” near -0.032, cut for the highest 2% near 0.36. Some of the results follow.

This assay has as its target T1, Sko1 (UniProt Q02100).
T1 sequence: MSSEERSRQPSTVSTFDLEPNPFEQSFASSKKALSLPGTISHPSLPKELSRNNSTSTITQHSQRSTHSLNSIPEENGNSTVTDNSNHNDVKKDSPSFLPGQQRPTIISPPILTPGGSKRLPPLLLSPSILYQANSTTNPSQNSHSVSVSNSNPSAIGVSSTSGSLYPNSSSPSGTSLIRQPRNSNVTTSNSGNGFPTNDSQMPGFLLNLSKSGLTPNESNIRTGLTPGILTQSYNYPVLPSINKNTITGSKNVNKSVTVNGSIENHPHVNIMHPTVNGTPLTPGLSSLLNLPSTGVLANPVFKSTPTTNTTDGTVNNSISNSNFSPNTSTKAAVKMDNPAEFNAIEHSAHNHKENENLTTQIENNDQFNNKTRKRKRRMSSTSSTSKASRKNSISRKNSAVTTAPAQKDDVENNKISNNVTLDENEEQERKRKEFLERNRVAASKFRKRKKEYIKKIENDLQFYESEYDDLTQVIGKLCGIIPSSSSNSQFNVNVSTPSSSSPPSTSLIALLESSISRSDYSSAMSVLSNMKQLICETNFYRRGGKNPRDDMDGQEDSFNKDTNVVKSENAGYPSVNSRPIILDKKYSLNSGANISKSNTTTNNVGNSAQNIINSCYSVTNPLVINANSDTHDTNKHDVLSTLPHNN
Description: PBM E-score (8-mer binding enrichment) (E-score (-0.5 to 0.5)); higher = stronger / more preferred TF binding; most listed sequences are background and not binding sites. As to conditions: protein concentration: 200 nM; construct: GST-full length. Put shortly:
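Yeast transcription factors carrying a GST tag, as full-length proteins or DNA-binding domains, were produced by PURExpress in vitro transcription/translation. About 100-200 nM protein was applied to universal all-10-mer Agilent arrays, double-stranded by primer extension on fresh or once-stripped slides. Bound protein was detected with fluorescent anti-GST, and scans were normalised with masliner. The Universal PBM Analysis Suite gave each ungapped eight-base word, pooled with its reverse complement, an E-score, a modified Wilcoxon-Mann-Whitney statistic.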
Turning to AATGTTTG, the “PBM E-score” value amounted to 0.13.

In the case of ACAGTTGG, the “PBM E-score” value was -0.0101.

Turning to AAGCATAG, the “PBM E-score” value was -0.128.

As for TAGACAGA, the “PBM E-score” value is 0.0367.

In the case of ACCGATTG, the “PBM E-score” value is 0.167.

Consider GTAACGAA, for which the “PBM E-score” value was found to be 0.216.

Take AACATGCT: the “PBM E-score” value came to 0.041.

In the case of AGATTCAA, the “PBM E-score” value amounted to 0.0684.

On to CAATATTG, for which the “PBM E-score” value worked out at 0.152.

Regarding AATTGTCA, the “PBM E-score” value came to 0.184.

Take CGGGGCCC: the “PBM E-score” value is -0.187.

As for CCCATACG, the “PBM E-score” value was determined as 0.143.

In the case of CGTATGCA, the “PBM E-score” value was found to be 0.317.

For AAAAGAGT, the “PBM E-score” value was -0.0223.

On to AGAGAGGC, for which the “PBM E-score” value is -0.353.

For CAGCCAGA, the “PBM E-score” value is -0.312.

Consider GAAAGCTC, for which the “PBM E-score” value was -0.146.

Consider GTACATGA, for which the “PBM E-score” value amounted to 0.184.

Regarding GAGGGTCA, the “PBM E-score” value is -0.182.

As to CACCACGC, the “PBM E-score” value was -0.0281.

With CATAAGCC, the “PBM E-score” value was -0.0211.

CAACGAGG: the “PBM E-score” value was -0.123.

Turning to CTGGCATA, the “PBM E-score” value is -0.0856.

As for TCTAGTCA, the “PBM E-score” value was -0.0419.

As to CAACGAGA, the “PBM E-score” value stood at 0.157.

On to CCGCGGTA, for which the “PBM E-score” value is -0.258.

Regarding GCTCTTAC, the “PBM E-score” value was found to be 0.18.

In the case of TGCTCAAA, the “PBM E-score” value was -0.0326.

Take AATGTGGA: the “PBM E-score” value was -0.0739.

Take CATTCAGG: the “PBM E-score” value is -0.212.

ACAGGCAA: the “PBM E-score” value amounted to 0.0974.

CATAGGGC: the “PBM E-score” value is -0.266.

Turning to GACGGGTA, the “PBM E-score” value was -0.0399.

For ATTGCCAA, the “PBM E-score” value is -0.0464.

In the case of AGAGCGGC, the “PBM E-score” value came to 0.00213.

ATATGATC: the “PBM E-score” value turned out to be 0.134.

For the sequence GCCAAAGA, the “PBM E-score” value is -0.0869.

Regarding GTGAAGCA, the “PBM E-score” value is -0.0321.

Consider GAATGCGC, for which the “PBM E-score” value was -0.0347.

For the sequence CGGTGTGA, the “PBM E-score” value is -0.0205.

CCTGGGGA: the “PBM E-score” value is -0.395.

On to ATGACTAA, for which the “PBM E-score” value stood at 0.114.

Consider ACCGATGC, for which the “PBM E-score” value was -0.219.

Turning to CAAGAGCG, the “PBM E-score” value is -0.162.

With GTAGACAC, the “PBM E-score” value is 0.0833.

With CAGGTAAA, the “PBM E-score” value amounted to 0.235.

CACACCGA: the “PBM E-score” value amounted to 0.0399.

Regarding GGTTGACA, the “PBM E-score” value is -0.0383.

Regarding ACATAACT, the “PBM E-score” value was 0.0944.

In the case of GCTGAGCC, the “PBM E-score” value was -0.0522.

Regarding AGAAAATG, the “PBM E-score” value turned out to be 0.0406.

On to AAGAAAGG, for which the “PBM E-score” value was found to be 0.00665.

In the case of AGCTTCAG, the “PBM E-score” value was -0.0984.

Consider CATGCGAG, for which the “PBM E-score” value is -0.0364.

For ATCGAAGC, the “PBM E-score” value was -0.0646.

Take ACAGGGAT: the “PBM E-score” value was -0.176.

For the sequence ACCAACCA, the “PBM E-score” value is -0.0223.

In the case of CAGGGACC, the “PBM E-score” value was -0.198.

As for CGTCGTTC, the “PBM E-score” value is 0.236.

Turning to AGCCCCAT, the “PBM E-score” value is -0.225.

On to CCATGGGA, for which the “PBM E-score” value is -0.181.

Regarding CTTCCGTC, the “PBM E-score” value amounted to 0.0378.

CATGAGAA: the “PBM E-score” value amounted to 0.139.

Consider CCTGGGTA, for which the “PBM E-score” value was -0.255.

Consider CCATTCAC, for which the “PBM E-score” value was -0.0988.

For AAAACCCT, the “PBM E-score” value was -0.0666.

In the case of CCGGGGCA, the “PBM E-score” value was -0.332.

In the case of CCCATTAC, the “PBM E-score” value is 0.122.

Consider GGGCCGAC, for which the “PBM E-score” value was -0.241.

Take CCATCTAG: the “PBM E-score” value is -0.166.

With CGTTTACA, the “PBM E-score” value was found to be 0.138.

As for GATACTGA, the “PBM E-score” value amounted to 0.102.

As for GCTGCTAC, the “PBM E-score” value is -0.226.

As for CTTGCTAA, the “PBM E-score” value was -0.0906.

Turning to ACTCGGCG, the “PBM E-score” value was -0.126.

As for AGTGAAGG, the “PBM E-score” value is -0.0912.

For the sequence ACCAAGAT, the “PBM E-score” value is 0.0743.

For ACCGTATG, the “PBM E-score” value was found to be 0.105.

On to CCACCAAA, for which the “PBM E-score” value is -0.173.

Consider GATGGGCA, for which the “PBM E-score” value is -0.152.

Take ACAGTCCA: the “PBM E-score” value is -0.0384.

As to TAATGCTA, the “PBM E-score” value worked out at 0.275.

Turning to CAAGTCAA, the “PBM E-score” value was -0.0625.

For GGTTCCTA, the “PBM E-score” value was -0.201.

With ACAAGAGG, the “PBM E-score” value was -0.156.

Regarding AGCTTGAG, the “PBM E-score” value is -0.234.

As for CCGCGGCA, the “PBM E-score” value is -0.212.

As to CAACCATG, the “PBM E-score” value is -0.0378.

Consider GTGGCTCA, for which the “PBM E-score” value is -0.0741.

In the case of ATCTCCAG, the “PBM E-score” value was -0.00718.

In the case of AAAGCACC, the “PBM E-score” value was -0.276.

In the case of ATCTGTGA, the “PBM E-score” value is -0.0628.

For CGTATGAG, the “PBM E-score” value turned out to be 0.267.

With CGCTTCCC, the “PBM E-score” value is -0.227.

With AAAATCTG, the “PBM E-score” value is 0.133.

Turning to TAGTAGCA, the “PBM E-score” value amounted to 0.136.

For CGTAAGGA, the “PBM E-score” value is 0.327.

Take AGAGTTCG: the “PBM E-score” value turned out to be 0.122.

For AGTTCCAG, the “PBM E-score” value was -0.222.

Turning to CCTCTCCC, the “PBM E-score” value is -0.359.

With ATCGATGA, the “PBM E-score” value worked out at 0.243.

For AGTGCCGC, the “PBM E-score” value is -0.144.

On to ACCTACGA, for which the “PBM E-score” value is 0.159.

On to CCAGTCGC, for which the “PBM E-score” value was -0.0974.

For CCTCAGAA, the “PBM E-score” value is -0.198.

Turning to CACTGATA, the “PBM E-score” value was -0.0425.

On to CAGGCCTA, for which the “PBM E-score” value stood at 0.0202.

In the case of GATGGGAA, the “PBM E-score” value is -0.214.

Consider CCCCAACA, for which the “PBM E-score” value was -0.215.
